# Measured values from the supplement of paper PMC9446081.
# About 220 (0.56%) of roughly 39,000 compounds showed activity. Some of the results follow.
# System: Escherichia coli K-12 BW25113
# Test: relative growth (OD600 normalised to plate interquartile mean) (fraction); higher = less growth inhibition, active = 0.2 or less
# Conditions: 50 µM; LB; incubation time: overnight (16-24 h)
# 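Note: static incubation at 37 °C against the wild-type strain, values averaged over two biological replicates.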
row,SMILES,relative growth
1,Cc1noc(C)c1S(=O)(=O)N(C)C[C@H]1OCCCC[C@H](C)Oc2ccc(NC(=O)Nc3ccccc3)cc2C(=O)N([C@H](C)CO)C[C@@H]1C,inactive: 0.991
2,CNC(=O)C[C@@H]1CC[C@@H]2[C@H](COC[C@@H](O)CN2C(=O)c2ccc3c(c2)OCO3)O1,inactive: 0.995
3,Cc1ccc(S(=O)(=O)N(C)C[C@H]2Oc3ccc(NS(=O)(=O)c4cccs4)cc3C(=O)N([C@H](C)CO)C[C@@H]2C)cc1,inactive: 1.03
4,CO[C@@H]1CN(C)C(=O)c2ccc(NC(=O)C3CC3)cc2OC[C@@H](C)N(C(=O)C2CCOCC2)C[C@H]1C,inactive: 1.03
5,C[C@@H]1CCCCO[C@@H](CN(C)Cc2ccc(C(=O)O)cc2)[C@H](C)CN([C@H](C)CO)C(=O)c2cc(NC(=O)Nc3cccc4ccccc34)ccc2O1,inactive: 1
6,C[C@@H]1CCCCO[C@@H](CN(C)C(=O)Nc2ccc3c(c2)OCO3)[C@H](C)CN([C@H](C)CO)C(=O)c2cc(NC(=O)Nc3cccc4ccccc34)ccc2O1,inactive: 1.02
7,OCc1cccc(Cn2cncn2)c1,inactive: 1.02
8,C[C@@H]1CN([C@@H](C)CO)C(=O)c2cccc(NS(=O)(=O)c3ccc(F)cc3)c2O[C@@H]1CN(C)Cc1ccc(Oc2ccccc2)cc1,inactive: 0.991
9,Cc1cc(CN)cc(C)c1NC(=O)c1ccc(-c2cc(Cl)ccc2Cl)o1,inactive: 0.978
10,C[C@H]1CN([C@@H](C)CO)C(=O)Cc2cc(NS(=O)(=O)c3ccc(F)cc3)ccc2O[C@H]1CN(C)Cc1ccc(Oc2ccccc2)cc1,inactive: 1.01
11,O=C1O[C@@H](c2ccccc2)[C@@H](c2ccccc2)N2[C@@H](c3ccc(O)cc3)[C@]3(C(=O)Nc4ccc(C#CCCO)cc43)[C@@H](C(=O)N3CCCCCCC3)[C@H]12,inactive: 1.02
12,CN(C)CC(=O)N[C@@H]1CC[C@H](CCNC(=O)C2CCC2)O[C@@H]1CO,inactive: 1
13,COc1ccc(CN(C)C[C@@H]2Oc3ccc(NS(=O)(=O)c4cn(C)cn4)cc3C(=O)N([C@H](C)CO)C[C@@H]2C)cc1,inactive: 0.981
14,C[C@H]1CN([C@@H](C)CO)C(=O)c2c(c3ccccc3n2C)-c2ccccc2CO[C@H]1CN(C)C(=O)Nc1ccccc1,inactive: 0.996
15,C[C@H](CO)N1C[C@H](C)[C@H](CN(C)C(=O)Nc2ccc3c(c2)OCO3)OCCCC[C@H](C)Oc2ccc(NS(=O)(=O)c3ccc(F)cc3)cc2C1=O,inactive: 1.04
16,c1ccc2c(c1)[nH]c1ncccc12,inactive: 0.861
17,Cc1noc(C)c1NC(=O)Nc1cccc2c1O[C@H](CN(C)Cc1ccc(-c3ccccc3)cc1)[C@@H](C)CN([C@@H](C)CO)C2=O,inactive: 1.01
18,C/C(C[P+](c1ccccc1)(c1ccccc1)c1ccccc1)=N\NC(=O)CCCCCC(=O)Nc1ccccc1O,inactive: 0.996
19,COc1ccc(NC(=O)Nc2ccc3c(c2)CC(=O)N([C@H](C)CO)C[C@H](C)[C@H](CN(C)S(=O)(=O)c2c(C)noc2C)O3)cc1,inactive: 0.989
20,COCC#Cc1cnc2c(c1)C(=O)N([C@@H](C)CO)C[C@H](C)[C@@H](CN(C)C(=O)CN1CCOCC1)O2,inactive: 1
21,Cc1cc(-c2ccccc2)nnc1NCCN1CCOCC1.Cl.Cl,inactive: 0.942

row,SMILES,relative growth
1,CC/N=c1\nc(NCC)[nH]c(=S)[nH]1,inactive: 0.983
2,Cc1cc(O)cc2c1O[C@](C)(CCC[C@H](C)CCC[C@H](C)CCCC(C)C)CC2,inactive: 1.02
3,C[C@@H]1CN([C@@H](C)CO)C(=O)c2cc(-c3ccc(C(=O)N(C)C)cc3)cnc2O[C@@H]1CN(C)C(=O)CN(C)C,inactive: 1.01
4,C[C@@H]1CN([C@@H](C)CO)C(=O)c2cc(NS(=O)(=O)c3ccccc3)ccc2O[C@H]1CN(C)Cc1ccc(-c2ccccc2)cc1,inactive: 0.973
5,C[C@@H]1CN([C@H](C)CO)C(=O)c2cc(C#Cc3cccc(F)c3)cnc2O[C@H]1CN(C)Cc1ccccn1,inactive: 1.01
6,C[C@H]1CN([C@@H](C)CO)C(=O)c2cc(NC(=O)Nc3ccc(C(F)(F)F)cc3)ccc2O[C@@H]1CN(C)Cc1ccccc1,inactive: 0.978
7,C[C@@H]1CCCCO[C@@H](CN(C)C(=O)Nc2cccc3ccccc23)[C@@H](C)CN([C@H](C)CO)C(=O)c2cc(NC(=O)c3ccncc3)ccc2O1,inactive: 1.01
8,CCCCCCCCCCCCCCCCCC(=O)OC[C@@H](COP(=O)(O)OCC[N+](C)(C)C)OC(=O)CCCCCCCCCCCCCCCCC,inactive: 1.05
9,Cc1ccc(CNC(=S)NCCO)cc1,inactive: 1.02
10,Cc1noc(C)c1NC(=O)N(C)C[C@@H]1Oc2ccc(NC(=O)C3CC3)cc2CC(=O)N([C@H](C)CO)C[C@@H]1C,inactive: 0.971
11,CC(C)CC#Cc1ccc2c(c1)O[C@H](CN(C)C(=O)Cc1ccccn1)[C@@H](C)CN([C@H](C)CO)S2(=O)=O,inactive: 1
12,C[C@H](CO)N1C[C@H](C)[C@@H](CN(C)S(=O)(=O)c2ccccc2)Oc2ccc(NS(=O)(=O)c3cn(C)cn3)cc2C1=O,inactive: 1.01
13,C[C@@H]1CN([C@H](C)CO)C(=O)c2cccc(NC(=O)Nc3ccc4c(c3)OCO4)c2O[C@H]1CN(C)C(=O)Nc1cccc2ccccc12,inactive: 1.03
14,C[C@H](CO)N1C[C@H](C)[C@@H](CN(C)S(=O)(=O)c2cccc(F)c2)Oc2ncc(Br)cc2C1=O,inactive: 1.03
15,COCC(=O)OCn1nnc2ccccc2c1=O,inactive: 0.983
16,C[C@@H]1CN([C@@H](C)CO)C(=O)c2cc(NS(=O)(=O)c3cn(C)cn3)ccc2O[C@H]1CN(C)Cc1ccccc1,inactive: 0.985
17,CCCNC(=O)Nc1ccc2c(c1)C(=O)N(C)C[C@H](OC)[C@H](C)CN(Cc1ccc(-c3ccccn3)cc1)[C@H](C)CO2,inactive: 1.06
18,Cc1ccc(S(=O)(=O)Nc2ccc3c(c2)CC(=O)N([C@@H](C)CO)C[C@@H](C)[C@@H](CN(C)S(=O)(=O)c2ccccc2)O3)cc1,inactive: 0.987
19,NC(=O)c1ccc([N+](=O)[O-])cc1Cl,inactive: 1.11
20,Cc1noc(C)c1NC(=O)N(C)C[C@@H]1Oc2ccc(NS(=O)(=O)c3ccccc3)cc2C(=O)N([C@@H](C)CO)C[C@H]1C,inactive: 0.987
21,O=C(O[C@H]1[C@H](O)[C@@H](CO)O[C@H](c2c(O)cc(O)c(C(=O)c3ccc(O)cc3)c2O)[C@H]1OC(=O)c1cc(O)c(O)c(O)c1)c1cc(O)c(O)c(O)c1,inactive: 0.722

row,SMILES,relative growth
1,Cc1noc(C)c1S(=O)(=O)N(C)C[C@H]1Oc2ccc(NS(C)(=O)=O)cc2CC(=O)N([C@H](C)CO)C[C@H]1C,inactive: 0.967
2,C[C@H](CO)N1C[C@H](C)[C@@H](CN(C)Cc2ccc3c(c2)OCO3)Oc2ccc(NS(C)(=O)=O)cc2CC1=O,inactive: 0.981
3,Nc1ccc(C(=O)[O-])c(O)c1.[Na+],inactive: 1.1
4,COc1nc(C)nc(Cl)c1NC1=NCCN1,inactive: 1.03
5,C[C@@H]1CN([C@@H](C)CO)C(=O)c2cc(N(C)C)ccc2O[C@@H]1CN(C)S(C)(=O)=O,inactive: 1.02
6,C[C@@H]1CN([C@H](C)CO)C(=O)c2cccc(NS(=O)(=O)c3ccc(F)cc3)c2O[C@H]1CN(C)Cc1ccc(-c2ccccc2)cc1,inactive: 0.998
7,COc1ccc(NC(=O)N2C[C@H](O)COC[C@@H]3O[C@@H](CC(=O)NCc4ccccc4OC)CC[C@H]32)cc1,inactive: 0.982
8,O=C(C[C@H]1C[C@H]2c3cc(NC(=O)Nc4ccccc4)ccc3O[C@H]2[C@@H](CO)O1)NCCN1CCCCC1,inactive: 0.985
9,CCCN1C[C@H](C)[C@@H](O)[C@](C)(O)[C@@H](CC)OC(=O)[C@H](C)[C@@H](O[C@H]2C[C@@](C)(OC)[C@@H](O)[C@H](C)O2)[C@H](C)[C@@H](O[C@@H]2O[C@H](C)C[C@H](N(C)C)[C@H]2O)[C@](C)(O)C[C@H]1C,active: 0.116
10,CS(=O)(=O)Nc1ccc2c(c1)[C@@H]1C[C@@H](CC(=O)NCc3ccc(-c4ccccc4)cc3)O[C@@H](CO)[C@@H]1O2,inactive: 0.992
11,Cc1noc(C)c1S(=O)(=O)N(C)C[C@@H]1OCCCC[C@H](C)Oc2ccc(NS(=O)(=O)c3cn(C)cn3)cc2C(=O)N([C@@H](C)CO)C[C@H]1C,inactive: 1.02
12,CC1CCC(C(C)C)C(=O)C1 (configuration not stated),inactive: 0.93
13,O=C(NO)c1ccc(C(=O)N/N=C/[C@H](O)[C@@H](O)[C@@H](O)[C@H](O)C(=O)O)cc1,inactive: 1.02
14,Cc1n[nH]c(NN2CCOCC2)nc1=O,inactive: 1.01
15,C[C@@H]1CN([C@@H](C)CO)C(=O)c2cc(NC(=O)Nc3cccc4ccccc34)ccc2O[C@H]1CN(C)CC1CCCCC1,inactive: 1.01
16,CC(C)NC(=O)N(C)C[C@H]1Oc2c(NC(=O)Nc3ccc4c(c3)OCO4)cccc2C(=O)N([C@@H](C)CO)C[C@@H]1C,inactive: 1.02
17,COc1ccc(CN(C)C[C@H]2OCCCC[C@@H](C)Oc3ccc(NS(=O)(=O)c4ccc(OC)cc4)cc3C(=O)N([C@@H](C)CO)C[C@@H]2C)cc1,inactive: 0.988
18,CO[C@H](CN(C)C(=O)Nc1ccc(C(F)(F)F)cc1)[C@H](C)CN(Cc1ccccc1Cl)[C@H](C)CO,inactive: 1.04
19,O=C1c2c(O[C@@H]3O[C@H](CO)[C@@H](O)[C@H](O)[C@H]3O)cc(O)cc2O[C@@]1(O)Cc1ccc(O)cc1,inactive: 0.983
20,C[C@@H]1CN([C@@H](C)CO)C(=O)c2cc(NC(=O)CCN3CCOCC3)ccc2O[C@@H]1CN(C)C(=O)NC1CCCCC1,inactive: 1.02
